Reference: the supplement of paper PMC9151546
Many values rest on one well or one pass, so single values are uncertain.

Experiments:
[1] = system: CHO-K1; assay: relative survival (nuclei to bead ratio vs DMSO control) (% of vehicle control); higher = more surviving cells
Experimental: (§1)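 Flow-cytometric in vitro micronucleus assay (Litron MicroFlow) in CHO-K1 cells in 96-well plates, 19 concentrations (4.5-200 µM, n=1 per concentration). Without S9, cells were exposed for 24 h and sampled at 48 h. With Aroclor 1254-induced rat liver S9, cells were exposed for 3-4 h and sampled at 27-28 h. Read-outs are %MN and %hypodiploid nuclei relative to nucleated events, and relative survival as the nuclei-to-bead ratio versus the 1% DMSO vehicle control (x100).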

[2] = system: CHO-K1; assay: hypodiploid nuclei frequency (% of nucleated events); higher = more hypodiploid events (aneugenic)
Experimental: as §1

[3] = system: CHO-K1; assay: micronucleus frequency (% of nucleated events); higher = more micronuclei (genotoxic)
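For hypodiploid nuclei frequency (% of nucleated events) in this document: hypodiploid nuclei gated on a flow cytometer with 488 nm excitation after SYTOX Green staining, cultures at 37 °C, positive controls vinblastine without S9 and cyclophosphamide with S9.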
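For micronucleus frequency (% of nucleated events) in this document: cells lysed with nuclei stained by SYTOX Green, then micronucleus-gated events counted against nucleated events by flow cytometry with 488 nm excitation.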
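For relative survival (nuclei to bead ratio vs DMSO control) in this document: Lysed-cell nuclei stained with SYTOX Green and counted against counting beads by flow cytometry at 488 nm excitation, with vinblastine (no S9) and cyclophosphamide (plus S9) as positive controls.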

Oc1ccc(O)cc1 [Hydroquinone]
Conditions | hypodiploid nuclei frequency, [2] [%] | micronucleus frequency, [3] [%] | relative survival, [1]
concentration: 4.5 (µM), S9 metabolic activation: with S9, exposure time: 3-4 hours | 0.44 | 1.2 | 96.9
concentration: 4.5 (µM), S9 metabolic activation: without S9, exposure time: 24 hours | 0.68 | 1.64 | 101
concentration: 5.63 (µM), S9 metabolic activation: with S9, exposure time: 3-4 hours | 0.34 | 1.68 | 90.5
concentration: 5.63 (µM), S9 metabolic activation: without S9, exposure time: 24 hours | 0.74 | 1.26 | 99
concentration: 7.04 (µM), S9 metabolic activation: with S9, exposure time: 3-4 hours | 0.38 | 1.06 | 90.2
concentration: 7.04 (µM), S9 metabolic activation: without S9, exposure time: 24 hours | 0.72 | 1.5 | 90.6
concentration: 8.8 (µM), S9 metabolic activation: with S9, exposure time: 3-4 hours | 0.56 | 0.98 | 90
concentration: 8.8 (µM), S9 metabolic activation: without S9, exposure time: 24 hours | 0.6 | 1.26 | 99.4
concentration: 11 (µM), S9 metabolic activation: with S9, exposure time: 3-4 hours | 0.6 | 0.96 | 96.3
concentration: 11 (µM), S9 metabolic activation: without S9, exposure time: 24 hours | 0.84 | 1.48 | 106
concentration: 13.7 (µM), S9 metabolic activation: with S9, exposure time: 3-4 hours | 0.24 | 1.02 | 91.5
concentration: 13.7 (µM), S9 metabolic activation: without S9, exposure time: 24 hours | 1.1 | 1.74 | 83
concentration: 17.2 (µM), S9 metabolic activation: with S9, exposure time: 3-4 hours | 0.38 | 0.76 | 89.2
concentration: 17.2 (µM), S9 metabolic activation: without S9, exposure time: 24 hours | 3.1 | 2.2 | 83.2
concentration: 21.5 (µM), S9 metabolic activation: with S9, exposure time: 3-4 hours | 0.44 | 1 | 100
concentration: 21.5 (µM), S9 metabolic activation: without S9, exposure time: 24 hours | 1.56 | 1.74 | 124
concentration: 26.8 (µM), S9 metabolic activation: with S9, exposure time: 3-4 hours | 0.28 | 0.94 | 113
concentration: 26.8 (µM), S9 metabolic activation: without S9, exposure time: 24 hours | 0.86 | 2.34 | 79.2
concentration: 33.6 (µM), S9 metabolic activation: with S9, exposure time: 3-4 hours | 0.44 | 0.82 | 108
concentration: 33.6 (µM), S9 metabolic activation: without S9, exposure time: 24 hours | 1.48 | 3.5 | 75.9
concentration: 41.9 (µM), S9 metabolic activation: with S9, exposure time: 3-4 hours | 0.4 | 1.16 | 100
concentration: 41.9 (µM), S9 metabolic activation: without S9, exposure time: 24 hours | 2.24 | 3.64 | 52.8
concentration: 52.4 (µM), S9 metabolic activation: with S9, exposure time: 3-4 hours | 0.34 | 1.26 | 84.6
concentration: 52.4 (µM), S9 metabolic activation: without S9, exposure time: 24 hours | – | – | 39.1
concentration: 65.5 (µM), S9 metabolic activation: with S9, exposure time: 3-4 hours | 0.4 | 1.6 | 88.5
concentration: 65.5 (µM), S9 metabolic activation: without S9, exposure time: 24 hours | – | – | 12.1
concentration: 81.9 (µM), S9 metabolic activation: with S9, exposure time: 3-4 hours | 0.5 | 1.72 | 86.2
concentration: 81.9 (µM), S9 metabolic activation: without S9, exposure time: 24 hours | – | – | 5.13
concentration: 102 (µM), S9 metabolic activation: with S9, exposure time: 3-4 hours | 0.92 | 2 | 76.3
concentration: 102 (µM), S9 metabolic activation: without S9, exposure time: 24 hours | – | – | 0.1
concentration: 128 (µM), S9 metabolic activation: with S9, exposure time: 3-4 hours | 0.54 | 2.5 | 63.5
concentration: 128 (µM), S9 metabolic activation: without S9, exposure time: 24 hours | – | – | 0.02
concentration: 160 (µM), S9 metabolic activation: with S9, exposure time: 3-4 hours | 0.84 | 3.66 | 56.9
concentration: 160 (µM), S9 metabolic activation: without S9, exposure time: 24 hours | – | – | 0.03
concentration: 200 (µM), S9 metabolic activation: with S9, exposure time: 3-4 hours | 0.9 | 5.44 | 42
concentration: 200 (µM), S9 metabolic activation: without S9, exposure time: 24 hours | – | – | 0.04

C[C@@H]1C[C@@H]([C@H](O)CC2CC(=O)NC(=O)C2)C(=O)[C@@H](C)C1 [Cycloheximide]
Conditions | hypodiploid nuclei frequency, [2] [%] | micronucleus frequency, [3] [%] | relative survival, [1]
concentration: 4.5 (µM), S9 metabolic activation: with S9, exposure time: 3-4 hours | 0.26 | 2.22 | 74.6
concentration: 4.5 (µM), S9 metabolic activation: without S9, exposure time: 24 hours | – | – | 43
concentration: 5.63 (µM), S9 metabolic activation: with S9, exposure time: 3-4 hours | 0.24 | 2.54 | 73.7
concentration: 5.63 (µM), S9 metabolic activation: without S9, exposure time: 24 hours | – | – | 34.6
concentration: 7.04 (µM), S9 metabolic activation: with S9, exposure time: 3-4 hours | 0.34 | 2.76 | 72.5
concentration: 7.04 (µM), S9 metabolic activation: without S9, exposure time: 24 hours | – | – | 37.6
concentration: 8.8 (µM), S9 metabolic activation: with S9, exposure time: 3-4 hours | 0.46 | 3.22 | 79.3
concentration: 8.8 (µM), S9 metabolic activation: without S9, exposure time: 24 hours | – | – | 37.7
concentration: 11 (µM), S9 metabolic activation: with S9, exposure time: 3-4 hours | 0.44 | 4.42 | 74.2
concentration: 11 (µM), S9 metabolic activation: without S9, exposure time: 24 hours | – | – | 39.5
concentration: 13.7 (µM), S9 metabolic activation: with S9, exposure time: 3-4 hours | 0.32 | 3.52 | 68.4
concentration: 13.7 (µM), S9 metabolic activation: without S9, exposure time: 24 hours | – | – | 40.6
concentration: 17.2 (µM), S9 metabolic activation: with S9, exposure time: 3-4 hours | 0.36 | 3.72 | 59.5
concentration: 17.2 (µM), S9 metabolic activation: without S9, exposure time: 24 hours | – | – | 38.4
concentration: 21.5 (µM), S9 metabolic activation: with S9, exposure time: 3-4 hours | 0.38 | 5.4 | 54
concentration: 21.5 (µM), S9 metabolic activation: without S9, exposure time: 24 hours | – | – | 38.1
concentration: 26.8 (µM), S9 metabolic activation: with S9, exposure time: 3-4 hours | 0.26 | 3.96 | 55.1
concentration: 26.8 (µM), S9 metabolic activation: without S9, exposure time: 24 hours | – | – | 31.6
concentration: 33.6 (µM), S9 metabolic activation: with S9, exposure time: 3-4 hours | 0.34 | 7.32 | 52.7
concentration: 33.6 (µM), S9 metabolic activation: without S9, exposure time: 24 hours | – | – | 31.9
concentration: 41.9 (µM), S9 metabolic activation: with S9, exposure time: 3-4 hours | 0.33 | 5.09 | 46.2
concentration: 41.9 (µM), S9 metabolic activation: without S9, exposure time: 24 hours | – | – | 30.8
concentration: 52.4 (µM), S9 metabolic activation: with S9, exposure time: 3-4 hours | 0.43 | 6.52 | 48.9
concentration: 52.4 (µM), S9 metabolic activation: without S9, exposure time: 24 hours | – | – | 34.2
concentration: 65.5 (µM), S9 metabolic activation: with S9, exposure time: 3-4 hours | – | – | 35.3
concentration: 65.5 (µM), S9 metabolic activation: without S9, exposure time: 24 hours | – | – | 30.7
concentration: 81.9 (µM), S9 metabolic activation: with S9, exposure time: 3-4 hours | – | – | 35.3
concentration: 81.9 (µM), S9 metabolic activation: without S9, exposure time: 24 hours | – | – | 30.1
concentration: 102 (µM), S9 metabolic activation: without S9, exposure time: 24 hours | – | – | 30.9
concentration: 128 (µM), S9 metabolic activation: without S9, exposure time: 24 hours | – | – | 27.1
concentration: 160 (µM), S9 metabolic activation: without S9, exposure time: 24 hours | – | – | 27.03
concentration: 200 (µM), S9 metabolic activation: without S9, exposure time: 24 hours | – | – | 26.7
